# In publication PMC9911399, “Two distinct binding modes provide the RNA-binding protein RbFox with extraordinary sequence specificity”:
# Numbering of substitutions follows the chain as printed; changes in the protein carry UniProt numbers. Some of the results follow.
# T1: RBFOX1 RRM (Homo sapiens, UniProt Q9NWB1 109-208)
# T1 sequence: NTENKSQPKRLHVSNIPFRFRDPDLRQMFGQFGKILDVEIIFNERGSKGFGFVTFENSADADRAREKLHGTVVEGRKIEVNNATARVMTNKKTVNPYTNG
# B1: CUUACCA (DNA:RNA)
# RNA: GGGAGACCGGAAUUCAGAUUGUCCCUUACCAUUAAAUCCCGUCGUAGCCACCA
# DNA 1: CAATCTGAATTCCGGTCTCCC
# DNA 2: TGGTGGCTACGACGGGATT
# B2: UAACAGG (DNA:RNA)
# RNA: GGGAGACCGGAAUUCAGAUUGUCCUAACAGGUUAAAUCCCGUCGUAGCCACCA
# DNA 1: CAATCTGAATTCCGGTCTCCC
# DNA 2: TGGTGGCTACGACGGGATT
# B3: GCUCUAU (DNA:RNA)
# RNA: B1 RNA with C25G, U26C, A28C, C29U, C30A, A31U
# DNA 1: CAATCTGAATTCCGGTCTCCC
# DNA 2: TGGTGGCTACGACGGGATT
# B4: AUAGUAG (DNA:RNA)
# RNA: B2 RNA with U25A, A26U, C28G, A29U, G30A
# DNA 1: CAATCTGAATTCCGGTCTCCC
# DNA 2: TGGTGGCTACGACGGGATT
# B5: CGACAGG (DNA:RNA)
# RNA: B2 RNA with U25C, A26G
# DNA 1: CAATCTGAATTCCGGTCTCCC
# DNA 2: TGGTGGCTACGACGGGATT
# B6: CAAACCU (DNA:RNA)
# RNA: B1 RNA with U26A, U27A, A31U
# DNA 1: CAATCTGAATTCCGGTCTCCC
# DNA 2: TGGTGGCTACGACGGGATT
# B7: AGCGAAA (DNA:RNA)
# RNA: B1 RNA with C25A, U26G, U27C, A28G, C29A, C30A
# DNA 1: CAATCTGAATTCCGGTCTCCC
# DNA 2: TGGTGGCTACGACGGGATT
# B8: UAGACAA (DNA:RNA)
# RNA: B1 RNA with C25U, U26A, U27G, C30A
# DNA 1: CAATCTGAATTCCGGTCTCCC
# DNA 2: TGGTGGCTACGACGGGATT
# B9: ACACCGU (DNA:RNA)
# RNA: B2 RNA with U25A, A26C, A29C, G31U
# DNA 1: CAATCTGAATTCCGGTCTCCC
# DNA 2: TGGTGGCTACGACGGGATT
# B10: AUCGGUC (DNA:RNA)
# RNA: B1 RNA with C25A, U27C, A28G, C29G, C30U, A31C
# DNA 1: CAATCTGAATTCCGGTCTCCC
# DNA 2: TGGTGGCTACGACGGGATT
# B11: CUCAGUU (DNA:RNA)
# RNA: B1 RNA with U27C, C29G, C30U, A31U
# DNA 1: CAATCTGAATTCCGGTCTCCC
# DNA 2: TGGTGGCTACGACGGGATT
# B12: GAUAAUU (DNA:RNA)
# RNA: B1 RNA with C25G, U26A, C29A, C30U, A31U
# DNA 1: CAATCTGAATTCCGGTCTCCC
# DNA 2: TGGTGGCTACGACGGGATT
# B13: UCCGUAU (DNA:RNA)
# RNA: B2 RNA with A26C, A27C, C28G, A29U, G30A, G31U
# DNA 1: CAATCTGAATTCCGGTCTCCC
# DNA 2: TGGTGGCTACGACGGGATT
# B14: GAGUUCC (DNA:RNA)
# RNA: B1 RNA with C25G, U26A, U27G, A28U, C29U, A31C
# DNA 1: CAATCTGAATTCCGGTCTCCC
# DNA 2: TGGTGGCTACGACGGGATT
# B15: CAAUCUU (DNA:RNA)
# RNA: B1 RNA with U26A, U27A, A28U, C30U, A31U
# DNA 1: CAATCTGAATTCCGGTCTCCC
# DNA 2: TGGTGGCTACGACGGGATT
# B16: GGUGUUG (DNA:RNA)
# RNA: B1 RNA with C25G, U26G, A28G, C29U, C30U, A31G
# DNA 1: CAATCTGAATTCCGGTCTCCC
# DNA 2: TGGTGGCTACGACGGGATT
# B17: UUGGGGG (DNA:RNA)
# RNA: B2 RNA with A26U, A27G, C28G, A29G
# DNA 1: CAATCTGAATTCCGGTCTCCC
# DNA 2: TGGTGGCTACGACGGGATT
# B18: CGGAGUU (DNA:RNA)
# RNA: B1 RNA with U26G, U27G, C29G, C30U, A31U
# DNA 1: CAATCTGAATTCCGGTCTCCC
# DNA 2: TGGTGGCTACGACGGGATT
# B19: AAUGCAU (DNA:RNA)
# RNA: B1 RNA with C25A, U26A, A28G, C30A, A31U
# DNA 1: CAATCTGAATTCCGGTCTCCC
# DNA 2: TGGTGGCTACGACGGGATT
# B20: ACAAAUG (DNA:RNA)
# RNA: B2 RNA with U25A, A26C, C28A, G30U
# DNA 1: CAATCTGAATTCCGGTCTCCC
# DNA 2: TGGTGGCTACGACGGGATT
# B21: UAGCAUC (DNA:RNA)
# RNA: B2 RNA with A27G, G30U, G31C
# DNA 1: CAATCTGAATTCCGGTCTCCC
# DNA 2: TGGTGGCTACGACGGGATT
# B22: GGAUUCA (DNA:RNA)
# RNA: B1 RNA with C25G, U26G, U27A, A28U, C29U
# DNA 1: CAATCTGAATTCCGGTCTCCC
# DNA 2: TGGTGGCTACGACGGGATT
# B23: GUCAGGU (DNA:RNA)
# RNA: B1 RNA with C25G, U27C, C29G, C30G, A31U
# DNA 1: CAATCTGAATTCCGGTCTCCC
# DNA 2: TGGTGGCTACGACGGGATT
# B24: UGGUUUG (DNA:RNA)
# RNA: B2 RNA with A26G, A27G, C28U, A29U, G30U
# DNA 1: CAATCTGAATTCCGGTCTCCC
# DNA 2: TGGTGGCTACGACGGGATT
# B25: AGCCUAG (DNA:RNA)
# RNA: B2 RNA with U25A, A26G, A27C, A29U, G30A
# DNA 1: CAATCTGAATTCCGGTCTCCC
# DNA 2: TGGTGGCTACGACGGGATT
# B26: CAGUUGC (DNA:RNA)
# RNA: B2 RNA with U25C, A27G, C28U, A29U, G31C
# DNA 1: CAATCTGAATTCCGGTCTCCC
# DNA 2: TGGTGGCTACGACGGGATT
# B27: UCCAAAA (DNA:RNA)
# RNA: B1 RNA with C25U, U26C, U27C, C29A, C30A
# DNA 1: CAATCTGAATTCCGGTCTCCC
# DNA 2: TGGTGGCTACGACGGGATT
# B28: UUUUGUG (DNA:RNA)
# RNA: B1 RNA with C25U, A28U, C29G, C30U, A31G
# DNA 1: CAATCTGAATTCCGGTCTCCC
# DNA 2: TGGTGGCTACGACGGGATT
# B29: UUAUACG (DNA:RNA)
# RNA: B2 RNA with A26U, C28U, G30C
# DNA 1: CAATCTGAATTCCGGTCTCCC
# DNA 2: TGGTGGCTACGACGGGATT
# B30: ACGUAGG (DNA:RNA)
# RNA: B2 RNA with U25A, A26C, A27G, C28U
# DNA 1: CAATCTGAATTCCGGTCTCCC
# DNA 2: TGGTGGCTACGACGGGATT
# B31: AGGGACA (DNA:RNA)
# RNA: B1 RNA with C25A, U26G, U27G, A28G, C29A
# DNA 1: CAATCTGAATTCCGGTCTCCC
# DNA 2: TGGTGGCTACGACGGGATT
# Target: T1, RBFOX1 RRM
# Assay: EMSA; HiTS-Eq, 1 nM pool, 10 min; buffer printed only for the single-RNA assays: 10 mM Tris pH 7.5, 150 mM NaCl, 3.4 mM EDTA, 0.001% NP-40, 30 C
# Conditions: tags: His6 N-terminal (pET28a); label: 5' 32P
# Summary of the method: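 A pool of RNA with 7 randomized nucleotides, 5′-radiolabelled and with DNA-annealed flanks, was equilibrated at 1 nM for 10 min in 50 µL with purified RbFox RRM, wild type or mutant, across increasing protein concentrations. Free RNA was separated by 8% native PAGE, excised, reverse-transcribed, barcoded by PCR and sequenced. Relative association constants were obtained from read-count changes of each RNA species versus the control reaction and normalised to the cognate motif.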
row,Binder,binding signal
1,B1,0.00134 KA relative to UGCAUGU
2,B2,0.00534 KA relative to UGCAUGU
3,B3,0.00678 KA relative to UGCAUGU
4,B4,0.00556 KA relative to UGCAUGU
5,B5,0.0123 KA relative to UGCAUGU
6,B6,0.000969 KA relative to UGCAUGU
7,B7,0.0048 KA relative to UGCAUGU
8,B8,0.00292 KA relative to UGCAUGU
9,B9,0.00175 KA relative to UGCAUGU
10,B10,0.00899 KA relative to UGCAUGU
11,B11,0.0127 KA relative to UGCAUGU
12,B12,0.00433 KA relative to UGCAUGU
13,B13,0.00686 KA relative to UGCAUGU
14,B14,0.0216 KA relative to UGCAUGU
15,B15,0.00142 KA relative to UGCAUGU
16,B16,0.0175 KA relative to UGCAUGU

row,Binder,binding signal
1,B17,0.0118 KA relative to UGCAUGU
2,B18,0.0257 KA relative to UGCAUGU
3,B19,0.0126 KA relative to UGCAUGU
4,B20,0.00463 KA relative to UGCAUGU
5,B21,0.0216 KA relative to UGCAUGU
6,B22,0.0122 KA relative to UGCAUGU
7,B23,0.00934 KA relative to UGCAUGU
8,B24,0.0372 KA relative to UGCAUGU
9,B25,0.00816 KA relative to UGCAUGU
10,B26,0.012 KA relative to UGCAUGU
11,B27,0.0013 KA relative to UGCAUGU
12,B28,0.0302 KA relative to UGCAUGU
13,B29,0.00855 KA relative to UGCAUGU
14,B30,0.00998 KA relative to UGCAUGU
15,B31,0.00777 KA relative to UGCAUGU
